From the supplement of paper PMC12217912
The other results are listed elsewhere or left out. The full chains were built here from the parent and the listed change. Inactive controls read about 0.05.

B1: TEV protease; numbered along this chain (parent)
chain: MGESLFKGPRDYNPISSSICHLTNESDGHTTSLYGIGFGPFIITNKHLFRRNNGTLVVQSLHGVFKVKDTTTLQQHLVDGRDMIIIRMPKDFPPFPQKLKFREPQREERICLVTTNFQTKSMSSMVSDTSCTFPSGDGIFWKHWIQTKDGQCGSPLVSTRDGFIVGIHSASNFTNTNNYFTSVPKNFMELLTNQEAQQWVSGWRLNADSVLWGGHKVFMVKPEEPFQPVKEATQL

Variants of: B1
Assay: raw area under fraction-flipped curve 0-4 h after induction (AUC4h, not background-subtracted), DNA-recorder readout of cleavage of the substrate (dimensionless); higher = more cleavage of the substrate by the protease variant
Conditions: temperature: 34 °C; time window: 0-4 h after rhamnose induction
Experimental: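 In vivo DNA recorder in E. coli TOP10(DE3) ΔrhaA at 34 °C. Each TEVp single-site mutant (parent TEVp 0) is paired with a single-site variant of the 7-mer TEVs (canonical ENLYFQ|S). The substrate sits between flexible linkers in a Bxb1-sfGFP-TEVs-SsrA fusion, so cleavage stabilises Bxb1 and speeds flipping of a recombination array, read by NGS. The value is the raw area under the fraction-flipped curve over 0-4 h after rhamnose induction (AUC4h), with ≥20 reads per time point. It is not background-subtracted; inactive controls average about 0.047.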
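Note: Bxb1 expression induced with 0.2% (w/v) L-rhamnose at OD600 near 0.5, cultures sampled hourly, flipped fraction per protease–substrate barcode pair counted by paired-end Illumina sequencing.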

| Variant | area with substrate ENLYFAS | area with substrate ENLYFDS | area with substrate ENLYFES | area with substrate ENLYFFS | area with substrate ENLYFIS | area with substrate ENLYFKS | area with substrate ENLYFMS | area with substrate ENLYFPS | area with substrate ENLYFRS | area with substrate ENLYFSS | area with substrate ENLYFTS | area with substrate ENLYFVS | area with substrate ENLYFWS | area with substrate ENLYFYS | area with substrate ENLYFCS | area with substrate ENLYFHS | area with substrate ENLYFLS | area with substrate ENLYFNS | area with substrate ENLYFGS |
| --- | --- | --- | --- | --- | --- | --- | --- | --- | --- | --- | --- | --- | --- | --- | --- | --- | --- | --- | --- |
| S209V | 0.032 | 0.102 | 0.0562 | 0.0967 | 0.0531 | 0.0608 | 0.0714 | 0.0624 | 0.0631 | 0.0708 | 0.0759 | 0.068 | 0.0582 | 0.059 | – | – | – | – | – |
| H215C | 0.0698 | – | – | 0.0682 | 0.053 | – | 0.0511 | 0.0687 | 0.0522 | – | – | – | 0.051 | 0.0395 | 0.0667 | – | – | – | – |
| V217C | 0.0417 | 0.069 | 0.0761 | 0.0542 | 0.0541 | 0.0736 | 0.0635 | 0.0568 | 0.0638 | – | 0.0479 | 0.0568 | 0.0685 | – | 0.0623 | 0.0633 | 0.0583 | 0.0623 | – |
| M219S | 0.0534 | 0.0709 | 0.0525 | 0.0733 | 0.0553 | 0.0642 | 0.0649 | 0.0614 | 0.0621 | 0.0663 | 0.0496 | 0.0576 | 0.0635 | 0.0546 | 0.058 | 0.0584 | 0.0576 | 0.0494 | 0.0783 |
| V220M | 0.0595 | 0.0629 | 0.0837 | 0.0327 | 0.0515 | – | 0.0822 | 0.0674 | 0.0599 | 0.0627 | – | – | – | – | – | 0.0657 | 0.0689 | – | 0.0643 |
| V220W | 0.0776 | – | 0.0613 | 0.0634 | 0.0564 | 0.0615 | 0.0612 | 0.0561 | 0.0458 | 0.0605 | 0.0591 | 0.0612 | – | 0.0409 | 0.0676 | – | 0.0648 | 0.0679 | – |
| K221F | 0.0577 | 0.0527 | 0.0564 | 0.0671 | 0.0547 | 0.0599 | 0.0604 | 0.0557 | 0.0648 | 0.0441 | 0.0578 | – | 0.0548 | 0.0575 | 0.0204 | – | 0.0533 | 0.0574 | 0.0458 |
| P222F | 0.0595 | – | 0.0626 | 0.0641 | 0.0613 | 0.0491 | 0.0647 | 0.0509 | 0.066 | 0.104 | 0.0642 | 0.0566 | 0.0327 | 0.0602 | 0.0619 | 0.0623 | 0.0545 | 0.0566 | 0.0584 |
| E223I | 0.0677 | – | – | 0.066 | 0.0652 | 0.0308 | 0.0602 | 0.0616 | – | – | 0.065 | – | 0.0687 | 0.0526 | – | 0.0639 | – | – | – |
| E223K | 0.0521 | – | 0.0598 | 0.0853 | 0.0545 | 0.0629 | 0.083 | 0.0504 | 0.0639 | 0.058 | 0.0503 | – | 0.0663 | 0.0567 | 0.0498 | 0.0608 | – | 0.0657 | 0.0667 |
| F226H | 0.0807 | 0.0503 | 0.0672 | 0.0467 | 0.0528 | 0.0666 | 0.0696 | 0.0681 | 0.0557 | 0.0554 | 0.0619 | 0.0721 | 0.0477 | 0.0623 | 0.0609 | 0.0546 | 0.0571 | 0.0637 | 0.0704 |
| F226M | 0.0504 | 0.0498 | 0.0704 | 0.0725 | 0.0591 | 0.0396 | 0.0806 | 0.0548 | 0.0559 | 0.0596 | 0.0508 | 0.0579 | 0.0503 | 0.062 | 0.0495 | 0.057 | 0.0565 | 0.0542 | – |
| F226N | 0.0742 | 0.0698 | 0.0505 | 0.0696 | 0.0575 | 0.0727 | 0.0806 | 0.0598 | 0.06 | 0.0661 | 0.0615 | 0.0614 | 0.0563 | 0.0581 | – | 0.0692 | 0.0582 | 0.0676 | – |
| Q227L | 0.057 | 0.0617 | – | 0.0777 | 0.052 | 0.0678 | 0.072 | 0.069 | 0.039 | – | – | 0.0725 | – | 0.0578 | 0.0582 | – | – | 0.0672 | 0.0564 |
| Q227V | 0.0556 | 0.0467 | – | 0.07 | 0.0595 | 0.0571 | 0.0869 | 0.0608 | 0.0633 | – | – | – | 0.0472 | 0.064 | – | 0.0588 | – | 0.0639 | – |
| V229C | 0.059 | 0.0737 | 0.062 | – | 0.0542 | 0.0376 | 0.071 | 0.067 | – | 0.0509 | 0.061 | – | – | 0.0513 | 0.0478 | – | 0.0652 | 0.0533 | – |
| K230C | 0.0604 | – | 0.0682 | 0.0692 | 0.0547 | 0.0512 | 0.079 | 0.0684 | 0.0361 | 0.0717 | 0.0569 | 0.0656 | 0.0474 | – | 0.0676 | 0.0559 | – | 0.0646 | – |
| K230N | 0.0652 | – | – | 0.0716 | 0.0655 | 0.0641 | 0.061 | 0.064 | 0.0569 | 0.0739 | 0.0488 | – | 0.0499 | 0.0582 | 0.0554 | 0.0551 | 0.06 | – | – |
| E231C | 0.0614 | – | 0.0683 | 0.0635 | 0.0573 | 0.058 | 0.068 | 0.0539 | 0.055 | – | 0.0768 | 0.0618 | 0.053 | – | 0.0556 | – | – | – | 0.0873 |
| Q234W | 0.0634 | 0.0638 | 0.0626 | 0.0618 | 0.048 | 0.0551 | – | 0.0593 | 0.068 | 0.0657 | 0.0413 | 0.0488 | – | 0.0641 | 0.0585 | 0.0478 | 0.034 | 0.06 | 0.0613 |
| E3M | – | – | 0.0703 | 0.0555 | 0.0574 | – | 0.0775 | 0.062 | – | 0.0563 | – | – | 0.0499 | – | 0.0644 | – | – | 0.0699 | – |
| P14Y | – | – | 0.0604 | 0.097 | 0.0614 | 0.0421 | 0.0691 | 0.0754 | 0.0709 | – | 0.0618 | 0.0527 | 0.0605 | 0.0647 | 0.0835 | 0.0612 | 0.0637 | – | – |
| S18A | – | – | 0.0552 | 0.079 | 0.0503 | 0.0595 | 0.0638 | 0.0557 | – | 0.0876 | 0.0559 | 0.029 | 0.0542 | 0.0575 | 0.0581 | – | – | 0.0679 | – |
| I19K | – | – | 0.0571 | 0.0642 | 0.0496 | – | 0.0507 | 0.0464 | 0.0448 | 0.047 | 0.0418 | – | – | 0.0443 | 0.0565 | 0.033 | – | 0.0606 | – |
